The values below come from the supplement of paper PMC12067093, “Discovery and optimisation of a covalent ligand for TRIM25 and its application to targeted protein ubiquitination” (Chemical Science, 2025).

Compound in the assay: CC1Cc2ccccc2N1C(=O)C1CCCN(C1)C(=O)CCl (mixture of isomers) [TRIM25 ligand 11 (diastereomer mixture)]
The experiment in a line: probe-labelled cysteine peptide fold change vs DMSO (competition) (log2 fold change); higher = less target engagement (more negative = stronger competition). Conditions: THP-1, incubation time: 4 h.

Of roughly 21,000 targets only a part is listed; those with the largest changes were picked by preference.
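Further: competitive chemoproteomic profiling in live THP-1 cells with an iodoacetamide desthiobiotin (IA-DTB) probe, comparing probe-labelled peptide intensities in compound-treated cells against DMSO-treated controls.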

With “MIS18A_Q9NYP9_85_AQLEEEAAAAEERPLVFLCSGCR (UniProt Q9NYP9)”, the “probe-labelled cysteine peptide fold change” value (50 µM) was -0.0797.
For “MCMBP_Q9BTE3_325_LQHINPLLPACLNK (UniProt Q9BTE3)”, the “probe-labelled cysteine peptide fold change” value by setting is: (10 µM) 0.00028; (50 µM) -0.105.
In the case of “MIA3_Q5JRA6_1513_AGLEDECK (UniProt Q5JRA6)”, where the note is “50 µM”, the “probe-labelled cysteine peptide fold change” value was found to be 0.237.
Regarding “MAN2B2_Q9Y2E5_697_LTHVPQGHDGELLCHR (UniProt Q9Y2E5)”, the “probe-labelled cysteine peptide fold change” value reads like this: (10 µM) -0.0471; (50 µM) -0.264.
Turning to “MTFR1_Q15390_145_ICALENELAALR (UniProt Q15390)”, the “probe-labelled cysteine peptide fold change” value (10 µM) is -0.258 and the “probe-labelled cysteine peptide fold change” value (50 µM) is -0.219.
As for “METTL7B_Q6UX53_96_VTCLDPNPHFEK (UniProt Q6UX53)”, the “probe-labelled cysteine peptide fold change” value reads like this: (10 µM) 0.0518; (50 µM) 0.0816.
The like results for “MBOAT7_Q96N66_304_NIDCYSTDFCVR (UniProt Q96N66)” were, in that order, 0.208 and 0.128.
The like results for “NANP_Q8TBE9_49_YHYKEEAEIICDK (UniProt Q8TBE9)” were, in that order, -0.111 and -0.0521.
Consider “MAP1S_Q66K74_841_HDPLPDPLKVPPPLPDPSSICMVDPEMLPPK (UniProt Q66K74)”, for which the “probe-labelled cysteine peptide fold change” value (50 µM) was -0.592.
For the target “MTPN_P58546_83_HHITPLLSAVYEGHVSCVK (UniProt P58546)”, the “probe-labelled cysteine peptide fold change” value was 0.119 (10 µM) and -0.103 (50 µM).
As for “METTL18_O95568_48_CSAEQFDLPQDHLWEHK (UniProt O95568)”, the “probe-labelled cysteine peptide fold change” value (50 µM) was -0.324.
“LYPLA2_O95372_213_TYPGVMHSSCPQEMAAVK (UniProt O95372)”: under “50 µM”, the “probe-labelled cysteine peptide fold change” value was -0.403.
Consider “MIA3_Q5JRA6_124_EELQVPTDETDFVCFDGGR (UniProt Q5JRA6)”, for which the “probe-labelled cysteine peptide fold change” value reads like this: (10 µM) -0.0412; (50 µM) -0.176.
Regarding “MPG_P29372_215_DRELCSGPSK (UniProt P29372)”, the “probe-labelled cysteine peptide fold change” value is, setting by setting: (10 µM) -0.181; (50 µM) -0.11.
The like results for “MDN1_Q9NU22_5386_QYQICLAIDDSSSMVDNHTK (UniProt Q9NU22)” were, in that order, 0.0411 and 0.122.
The matching figures for “MEFV_O15553_315_CHAQEGDPVDGTCVR (UniProt O15553)”: -0.00687 and -0.0819.
Turning to “MINK1_Q8N4C8_129_EDCIAYICR (UniProt Q8N4C8)”, the “probe-labelled cysteine peptide fold change” value (50 µM) was determined as 0.0793.
For “MPC2_O95563_54_WGLVCAGLADMAR (UniProt O95563)”, the “probe-labelled cysteine peptide fold change” value is, setting by setting: (10 µM) 0.0107; (50 µM) 0.156.
Regarding “MRPL43_Q8N983_91_VVAEYLNGAVREESIHCK (UniProt Q8N983)”, the “probe-labelled cysteine peptide fold change” value is -0.239 (10 µM) and -0.199 (50 µM).
“MOV10_Q9HCE1_650_LVSAQFPIDHFTHIFIDEAGHCMEPESLVAIAGLMEVK (UniProt Q9HCE1)”: the “probe-labelled cysteine peptide fold change” value (50 µM) is -0.153.
Regarding “MBTPS2_O43462_386_SSSSSFCIIPSLETHTR (UniProt O43462)”, the “probe-labelled cysteine peptide fold change” value (50 µM) came to 0.0105.
Regarding “MTHFS_P49914_180_EQICLQVPVNENDMK (UniProt P49914)”, where the note is “50 µM”, the “probe-labelled cysteine peptide fold change” value is 0.555.
Consider “MTA2_O94776_209_ALDCSSSIR (UniProt O94776)”, for which, where the note is “50 µM”, the “probe-labelled cysteine peptide fold change” value was determined as 0.0396.
As to “LYST_Q99698_808_DLFLSCNGVSQIIELNCLNGIR (UniProt Q99698)”, the “probe-labelled cysteine peptide fold change” value is -0.589 (10 µM) and -0.449 (50 µM).
“LTN1_O94822_869_THLPDFLICK (UniProt O94822)”: the “probe-labelled cysteine peptide fold change” value (10 µM) was -0.000878 and the “probe-labelled cysteine peptide fold change” value (50 µM) stood at 0.118.
Regarding “NAPRT_Q6XQN6_48_RCPFGGAFALAAGLR (UniProt Q6XQN6)”, the “probe-labelled cysteine peptide fold change” value runs as follows: (10 µM) -0.348; (50 µM) 0.176.
Take “MTA3_Q9BTC8_109_CSVALLNETESVLSYLDK (UniProt Q9BTC8)”: the “probe-labelled cysteine peptide fold change” value (50 µM) is 0.652.
Regarding “MCM6_Q14566_302_LVFLACCVAPTNPR (UniProt Q14566)”, the “probe-labelled cysteine peptide fold change” value runs as follows: (10 µM) -0.101; (50 µM) -0.0708.
The like results for “MARK3_P27448_46_NSIASCADEQPHIGNYR (UniProt P27448)” were, in that order, -0.124 and -0.183.
The matching figures for “MYO18A_Q92614_1199_NLTLFQAACR (UniProt Q92614)”: -0.02 and -0.149.
The matching figures for “MIOS_Q9NXC5_377_HLYECTEEENDNSLEK (UniProt Q9NXC5)”: -0.126 and 0.047.
Regarding “MTR_Q99707_1153_ELWAYCGSEQLDVADLRR (UniProt Q99707)”, the “probe-labelled cysteine peptide fold change” value is -0.0992 (10 µM) and -0.174 (50 µM).
In the case of “MRPL38_Q96DV4_290_QDQPIDFSEDARPSPCYQLAQR (UniProt Q96DV4)”, under “50 µM”, the “probe-labelled cysteine peptide fold change” value was -0.12.
Still for that read-out and setting: the value for “MYCBP2_O75592_4406+4413_NEEHCLPCLHGCDK (UniProt O75592)” was -0.22; that for “MAN2C1_Q9NTJ4_29_FVSPLYFTDCNLR (UniProt Q9NTJ4)” was 0.132.
